SMILES strings stand for the structures. Some of the results follow.

The test system of the assay is T1, C. trachomatis L2/434/Bu expressing GFP (CTL2-GFP).
T1 construct: L2/434/Bu GFP intracellular growth in HeLa cells
Set-up: species or system HeLa; C. trachomatis total inclusion area by high-content imaging, normalised to DMSO. The following applies: total inclusion area; 28.5 h, 10 µM; inhibitor. An outline of the steps:
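Following bulk GFP and resorufin fluorescence reads, infected cells were fixed, Hoechst-stained and imaged on a high-content platform. Inclusion total area and number per well served as growth proxies; nuclei counts indicated host viability. MICs were derived as for the fluorescence assay.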
For `O=C(NCCCNC(=O)c1ccc(Cl)cc1Cl)c1ccncc1` [CBK269372], the “% of control remaining” value was 67.5739.
In the case of `Cc1nc(CC(=O)Nc2ccc(N3CCOCC3)cc2)cs1` [CBK304339] it was 44.8191; in that of `CNC(=O)c1nc(NC)oc1C` [CBK059214], 88.5503; in that of `O=C1CC(c2ccccc2)CC(=O)C1=CNCc1ccccn1` (centres unmarked) [CBK262521], 33.6244.
In the case of `COc1ccc(Cl)cc1S(=O)(=O)N1CCC(C(=O)NCCCO)CC1` [CBK269835] it was 74.5558.
Turning to `O=C(O)[C@@H]1CCCN1c1nc(O)cc(C(F)(F)F)n1` [CBK002865], the “% of control remaining” value amounted to 96.5132.
The same measure for `CCS(=O)(=O)c1nc2ccccc2n1CC(=O)Nc1ccccc1C(=O)OC` [CBK267877]: 88.3055.
In the case of `O=C(Nc1ccc(Cl)nc1)C(F)(F)F` [CBK091339] it was 67.7071; in that of `Cc1cc2occ(CC(=O)NCC(C)n3cncn3)c2cc1C` (centres unmarked) [CBK282614], 102.297; in that of `Cc1cc(C(=O)N2CCN(Cc3ccco3)C[C@@H]2C(C)C)c(C)[nH]1` [CBK284254], 100.798.
In the case of `O=C(CSc1ccccn1)Nc1ccc(C(=O)O)cc1` [CBK286605] it was 43.5216; in that of `Cc1ccc(N(C(=O)COc2ccc(C(C)(C)C)cc2)C2C=CS(=O)(=O)C2)cc1` (centres unmarked) [CBK265811], 115.148; in that of `Cc1cc(O)cc(C2CCCN(C(=O)CC3CCCC3)C2)n1` (centres unmarked) [CBK283422], 94.2643.
As for `COC(=O)c1ccc(C(=O)OC)c(NC(=O)C2CCCCC2C(=O)O)c1` (centres unmarked) [CBK265422], the “% of control remaining” value is 109.783.
With `Cc1ccc(NC(=O)COC(=O)CCc2c[nH]c(=O)[nH]2)cc1` [CBK265562], the “% of control remaining” value is 86.2887.
On to `CC(C)(C)C(=O)N1CCc2cc(C(O)CN3CCCC3)ccc21` (centres unmarked) [CBK282923], for which the “% of control remaining” value is 108.063.
The same measure for `COc1cc(CC(=O)N2CCc3c(sc4ncnc(N)c34)C2)ccc1C` [CBK306013]: 53.8934; for `COCCc1nc(CN(C)C)n(Cc2ccccc2C)n1` [CBK307014]: 62.8415.
The same measure for `Cc1ccc(N(CC(O)CN2CCCC2)S(=O)(=O)c2ccccc2)cc1` (centres unmarked) [CBK264739]: 90.1062; for `CCCC(=O)N1CCC(Cc2ccc(-c3cccc(C)c3)cc2)(C(=O)NC(C)C)CC1` [CBK285760]: 118.946.
The same measure for `CC(=O)OC(C(=O)O)C(OC(C)=O)c1nc2ccccc2s1` (centres unmarked) [CBK264076]: 89.4156; for `O=C(O)CCn1c(CO)nc2ccccc21` [CBK111473]: 75.6654.
As for `O=C(Nc1nc2ccccc2s1)NC1CC1` [CBK007542], the “% of control remaining” value was 78.9011.
On to `C[N+]1(CC(=O)c2ccccc2)C2CCC1CC(OC(=O)C(O)c1ccccc1)C2` (centres unmarked) [CBK022712C], for which the “% of control remaining” value stood at 82.5977.
In the case of `CCCC(=O)Nc1cccnc1N1CCNCC1` [CBK004732T] it was 98.4693; in that of `CC(C)COC(=O)N1CCC(C(=O)NC(c2ccc(Cl)cc2)c2cnccn2)CC1` (centres unmarked) [CBK059668], 107.49.
In the case of `O=C(c1ccc(F)cc1)N1CCC[C@@H]1Cn1c(=O)oc2ccccc21` [CBK284529] it was 87.6935; in that of `O=S(=O)(c1ccc(Cl)s1)N1CCN(c2ccccc2Cl)CC1` [CBK045098], 111.417.
The same measure for `COc1ccc(NC(=O)CSc2nc(C)c(Cc3ccc(O)cc3)[nH]2)cc1` [CBK291171]: 97.8654; for `Cc1cccc(-c2ncc(NC(=O)CCc3cccnc3)nc2-c2ccc(N)cc2)c1` [CBK036684]: 121.555.
Take `O=C(NCCCNc1c(Cl)cccc1[N+](=O)[O-])c1ccc(F)cc1` [CBK264943]: the “% of control remaining” value came to 94.4248.
Consider `CC(CNC(=O)C(C)Oc1ccccc1)CN(C)C` (centres unmarked) [CBK268658], for which the “% of control remaining” value was 122.268.
In the case of `O=C(Cn1nnc(-c2ccccc2)n1)Nc1cccc([N+](=O)[O-])c1` [CBK263057] it was 101.939; in that of `O=C(O)/C=C/c1cccc(-c2cnc(N3CCOCC3)c3nccn23)c1` [CBK091263], 92.884; in that of `CC(=O)c1ccccc1OCCOCCN1CCCC(C)C1` (centres unmarked) [CBK269625C], 63.5102.
In the case of `CNC(=S)N/C(=N/c1ccccc1)c1ccccc1` [CBK261037] it was 69.8393; in that of `CN(C)C(=O)c1ccc(-c2ncc(OCCN3CCOCC3)nc2N)cc1` [CBK145183], 96.0796.
In the case of `COc1ncc(-c2cncc(Nc3cccc(C#N)c3)n2)c(OC)n1` [CBK066022] it was 117.033; in that of `O=C(c1cc(F)c(F)cc1F)N1CCC2(CCN(Cc3cccc(C(F)(F)F)c3)C2)C1` (centres unmarked) [CBK132130], 81.2726; in that of `COc1cc(CNC(=O)N2CCN(CCc3ccccc3)CC2)cc(OC)c1OC` [CBK158910], 85.8222.
With `COc1ccc(CCNC(=O)c2cc(-c3ccc(C)o3)nc3ccccc23)cc1OC` [CBK265486], the “% of control remaining” value is listed as 81.6336.
The same measure for `Nc1cc2cccnc2nc1-c1cccc2cccnc12` [CBK067609]: 84.3844; for `O=C1C2C3C=CC(C3)C2C(=O)N1CCN1CCNCC1` (centres unmarked) [CBK278185C]: 113.137.
The same measure for `CCC(=O)Nc1ccc(-c2csc(N3CCSCC3)n2)cc1` [CBK306469]: 81.7127; for `S=C(NCc1ccccc1)Nc1ccccc1` [CBK091617]: 45.6424.
In the case of `CCOc1ccc(C(=O)Nc2nc(-c3ccc(F)cc3)cs2)cc1` [CBK072020] it was 94.0473; in that of `Cc1ccc(-c2nnc(COC(=O)c3cc(O)nc4ccccc34)o2)cc1` [CBK269741], 106.667; in that of `O=C(O)CCC(=O)N1CCCc2ccccc21` [CBK051167], 108.159.
In the case of `CCOC(=O)c1c(NC(=O)CCN2CCCCC2)sc2c1CCCCC2` [CBK265319G], the “% of control remaining” value is listed as 90.0849.
In the case of `CS(=O)(=O)c1cccc(C(=O)n2c(=O)n(CC3CCCCC3)c3ccccc32)c1` [CBK106520] it was 71.9227.
The same measure for `Cc1nc(C)n(CCNC(=O)Cc2coc3cc(C)c(C)cc23)n1` [CBK282613]: 111.34; for `C=CCNc1nccnc1-c1ccccc1OC` [CBK036831]: 103.665.
In the case of `COc1cc(CNc2cc(-c3ccc(NC(C)=O)cc3)ncn2)cc(OC)c1OC` [CBK091185] it was 151.461.

For the origin of these results see paper PMC12040169 (PLOS Biology, 2025).
